Data: the supplement of paper PMC11876631
Changes are numbered by the printed parent chain. Names and notes keep the numbering of the source. ± gives the standard deviation of the averaged measurements. Laboratory Escherichia coli strains with one amino-acid change in an essential protein, pooled on minimal glucose agar with carbenicillin or gentamicin at twice the control MIC (plus kanamycin and chloramphenicol for the plasmids), 48 h. Fold change of barcode share against drug-free plates; higher = less susceptible. Active = above 20 in both replicates (the paper's putatively resistant). '<' = one read or none on drug, '>' = one read or none on a drug-free plate. Shares are relative, so most strains fall below 1 when a few take over. Listed are strains with at least 15 reads on both drug-free plates, and hits; most hits rest on fewer reference reads. Replicate rank correlation about 0.5. Edits are read from barcodes.

B1: aroB L39P (protein)
chain: MERIVVTLGERSYPITIASGLFNEPASFLPLKSGEQVMPVTNETLAPLYLDKVRGVLEQAGVNVDSVILPDGEQYKSLAVLDTVFTALLQKPHGRDTTLVALGGGVVGDLTGFAAASYQRGVRFIQVPTTLLSQVDSSVGGKTAVNHPLGKNMIGAFYQPASVVVDLDCLKTLPPRELASGLAEVIKYGIILDGAFFNWLEENLDALLRLDGPAMAYCIRRCCELKAEVVAADERETGLRALLNLGHTFGHAIEAEMGYGNWLHGEAVAAGMVMAARTSERLGQFSSAETQRIITLLKRAGLPVNGPREMSAQAYLPHMLRDKKVLAGEMRLILPLAIGKSEVRSGVSHELVLNAIADCQSA
B2: aroB M38Q (protein)
chain: B1 chain with M38Q, P39L
B3: aroB M38W (protein)
chain: B1 chain with M38W, P39L
B4: lolA V152A (protein)
chain: MKKIAITCALLSSLVASSVWADAASDLKSRLDKVSSFHASFTQKVTDGSGAAVQEGQGDLWVKRPNLFNWHMTQPDESILVSDGKTLWFYNPFVEQATATWLKDATGNTPFMLIARNQSSDWQQYNIKQNGDDFVLTPKASNGNLKQFTINAGRDGTIHQFSAVEQDDQRSSYQLKSQQNGAVDAAKFTFTPPQGVTVDDQRK
B5: lolA F161A (protein)
chain: B4 chain with A152V, F161A
B6: lolB I122A (protein)
chain: MPLPDFRLIRLLPLAALVLTACSVTTPKGPGKSPDSPQWRQHQQDVRNLNQYQTRGAFAYISDQQKVYARFFWQQTGQDRYRLLLTNPLGSTELELNAQPGNVQLVDNKGQRYTADDAEEMAGKLTGMPIPLNSLRQWILGLPGDATDYKLDDQYRLSEITYSQNGKNWKVVYGGYDTKTQPAMPANMELTDGGQRIKLKMDNWIVK
B7: lolB I130P (protein)
chain: B6 chain with A122I, I130P
B8: lolB I122W (protein)
chain: B6 chain with A122W
B9: lolB I130D (protein)
chain: B6 chain with A122I, I130D
B10: lolB I130Q (protein)
chain: B6 chain with A122I, I130Q
B11: lolB I122P (protein)
chain: B6 chain with A122P
B12: lolB W138A (protein)
chain: B6 chain with A122I, W138A
B13: lolB I130A (protein)
chain: B6 chain with A122I, I130A
B14: lolB I122Q (protein)
chain: B6 chain with A122Q
B15: lolB I130W (protein)
chain: B6 chain with A122I, I130W
B16: lolB W138Q (protein)
chain: B6 chain with A122I, W138Q
B17: lolB I122D (protein)
chain: B6 chain with A122D

Target: Escherichia coli (laboratory strain)
Assay: barcode share on antibiotic plates over drug-free plates; higher = less susceptible
Settings: antibiotic: carbenicillin; 2× MIC (3.1 µg/mL)
Description: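 A pool of E. coli strains, each edited to carry one amino-acid change in an essential protein, was grown for 48 h on minimal glucose agar with or without antibiotic; strain barcodes were sequenced; mean of two replicates.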

**Q.** How did the “fold change of barcode share” value turn out when B1 was run?
**A.** 0.577 ± 0.039

**Q.** How did the “fold change of barcode share” value turn out when B2 was run?
**A.** 0.869 ± 0.16

**Q.** How did the “fold change of barcode share” value turn out when B3 was run?
**A.** 0.672 ± 0.4

**Q.** For B4, which “fold change of barcode share” value is on record?
**A.** 0.301 ± 0.15

**Q.** B5 was tested. Which “fold change of barcode share” value did it give?
**A.** 0.497 ± 0.042

**Q.** B6 was tested. Which “fold change of barcode share” value did it give?
**A.** 0.328 ± 0.12

**Q.** How did the “fold change of barcode share” value turn out when B7 was run?
**A.** 0.746 ± 0.014

**Q.** With B8 as the protein, how does the “fold change of barcode share” value read?
**A.** 0.295 ± 0.022

**Q.** How did the “fold change of barcode share” value turn out when B9 was run?
**A.** 0.386 ± 0.11

**Q.** B10 was tested. Which “fold change of barcode share” value did it give?
**A.** 0.253 ± 0.028

**Q.** B11 was tested. Which “fold change of barcode share” value did it give?
**A.** 0.243 ± 0.038

**Q.** For B12, which “fold change of barcode share” value is on record?
**A.** 0.2353 ± 0.0014

**Q.** With B13 as the protein, how does the “fold change of barcode share” value read?
**A.** 0.968 ± 0.074

**Q.** For B14, which “fold change of barcode share” value is on record?
**A.** 0.285 ± 0.016

**Q.** For B15, which “fold change of barcode share” value is on record?
**A.** 0.305 ± 0.054

**Q.** How did the “fold change of barcode share” value turn out when B16 was run?
**A.** 0.302 ± 0.024

**Q.** Which “fold change of barcode share” value does the source give for B17 here?
**A.** 0.386 ± 0.06

Same assay, conditions: antibiotic: gentamicin; 2× MIC (MIC 0.45 µg/mL)

**Q.** With B1 as the protein, how does the “fold change of barcode share” value read?
**A.** < 0.00986

**Q.** With B2 as the protein, how does the “fold change of barcode share” value read?
**A.** < 0.0149

**Q.** B3 was tested. Which “fold change of barcode share” value did it give?
**A.** < 0.0119

**Q.** Which “fold change of barcode share” value does the source give for B4 here?
**A.** 0.00533 ± 0.0029

**Q.** Which “fold change of barcode share” value does the source give for B5 here?
**A.** 0.00639 ± 0.0025

**Q.** B6 was tested. Which “fold change of barcode share” value did it give?
**A.** < 0.00305

**Q.** Which “fold change of barcode share” value does the source give for B7 here?
**A.** < 0.00156

**Q.** B8 was tested. Which “fold change of barcode share” value did it give?
**A.** 0.00348 ± 0.0017

**Q.** For B9, which “fold change of barcode share” value is on record?
**A.** 0.00319 ± 0.0015

**Q.** With B10 as the protein, how does the “fold change of barcode share” value read?
**A.** 0.0027 ± 0.0014

**Q.** Which “fold change of barcode share” value does the source give for B11 here?
**A.** 0.00542 ± 0.00065

**Q.** For B12, which “fold change of barcode share” value is on record?
**A.** 0.00507 ± 0.002

**Q.** Which “fold change of barcode share” value does the source give for B13 here?
**A.** 0.00556 ± 0.0055

**Q.** For B14, which “fold change of barcode share” value is on record?
**A.** < 0.00268

**Q.** With B15 as the protein, how does the “fold change of barcode share” value read?
**A.** 0.00612 ± 0.0025

**Q.** Which “fold change of barcode share” value does the source give for B16 here?
**A.** 0.00578 ± 0.0038

**Q.** With B17 as the protein, how does the “fold change of barcode share” value read?
**A.** < 0.00709
